Measured values as given in PubChem BioAssay AID504339 (National Center for Advancing Translational Sciences (NCATS), 2011).
About 17,000 (4.4%) of roughly 390,000 compounds were called active. Inconclusive results, whose numbers are uncertain, are shown with a selection of clear calls. Calls follow the shape of the dose curve; as a rule, active = well fitted inhibition curve with a large enough effect; inconclusive = small, poorly fitted or top-dose-only effect; inactive = no such curve, though single readings can be large or run the other way. Potencies of inconclusive entries are doubtful fits and often do not repeat.

Target: Lysine-specific demethylase 4A (Homo sapiens) (UniProt O75164)
UniProt O75164, sequence (O75164 whole entry, looked up, the tested form may be a part): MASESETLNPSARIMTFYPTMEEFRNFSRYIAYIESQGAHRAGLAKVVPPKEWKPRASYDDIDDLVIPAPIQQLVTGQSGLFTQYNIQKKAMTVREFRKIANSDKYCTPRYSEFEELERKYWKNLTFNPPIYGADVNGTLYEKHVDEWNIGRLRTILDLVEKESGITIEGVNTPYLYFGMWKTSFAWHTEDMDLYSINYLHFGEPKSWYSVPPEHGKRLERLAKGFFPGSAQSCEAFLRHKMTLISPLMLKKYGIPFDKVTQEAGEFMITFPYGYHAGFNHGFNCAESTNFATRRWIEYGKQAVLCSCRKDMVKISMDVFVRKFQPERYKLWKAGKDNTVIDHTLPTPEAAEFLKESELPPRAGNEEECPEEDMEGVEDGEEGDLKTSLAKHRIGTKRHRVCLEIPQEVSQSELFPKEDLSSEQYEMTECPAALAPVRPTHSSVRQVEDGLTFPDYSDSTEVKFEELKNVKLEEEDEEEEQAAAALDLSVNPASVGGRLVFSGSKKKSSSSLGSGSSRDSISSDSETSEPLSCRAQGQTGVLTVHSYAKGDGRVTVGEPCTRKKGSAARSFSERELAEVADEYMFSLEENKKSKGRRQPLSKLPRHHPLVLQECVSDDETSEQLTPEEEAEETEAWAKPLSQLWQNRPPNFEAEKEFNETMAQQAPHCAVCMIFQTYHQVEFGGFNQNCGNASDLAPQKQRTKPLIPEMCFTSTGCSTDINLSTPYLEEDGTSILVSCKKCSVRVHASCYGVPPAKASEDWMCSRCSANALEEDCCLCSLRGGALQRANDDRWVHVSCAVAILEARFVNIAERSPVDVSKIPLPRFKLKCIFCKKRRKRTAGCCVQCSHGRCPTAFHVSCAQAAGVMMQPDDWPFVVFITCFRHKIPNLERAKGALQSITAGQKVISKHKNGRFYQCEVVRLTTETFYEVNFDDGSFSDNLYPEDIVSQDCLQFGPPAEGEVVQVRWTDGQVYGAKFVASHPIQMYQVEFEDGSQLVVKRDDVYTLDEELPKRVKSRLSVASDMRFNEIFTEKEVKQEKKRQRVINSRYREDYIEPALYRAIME
Test: qHTS Assay for Inhibitors of JMJD2A-Tudor Domain; also: nearly all actives have a fitted effect of over 50% in size
Conditions: AlphaScreen JMJD2A-Tudor / H3K4me3 peptide binding; activity change, negative = inhibition: at 114 µM (top of the series)
% is scaled to controls: 0 for no effect and ±100 for the full control effect; potency is read from the fitted curve at half-maximal effect; tags tell the direction and shape of the fitted curve.

Structure (SMILES)	activity change, negative = inhibition	Potency
CCc1nnc(NS(=O)(=O)c2ccc(Nc3ccc4nonc4c3[N+](=O)[O-])cc2)s1	inactive: -12.8% [at 11.4 µM]	–
CCOc1cc(C(=S)N2CCOCC2)ccc1OC(=O)c1ccc(C)cc1	–	inconclusive: 35.5 µM [inhibitor, partial curve]
COc1ccc(NCC(=O)N/N=C2\CCc3ccccc32)cc1	–	inconclusive: 56.2 µM [inhibitor, partial curve]
CCOc1ccc(N2C(=O)CC(NCCc3c[nH]c4ccccc34)C2=O)cc1 (centres undefined)	inactive: -30.1%	–
CN(C1CCCCC1)S(=O)(=O)c1cc2c(cc1Cl)NC(=O)CO2	inactive: -24.1%	–
O=C(Nc1ccc(CN2CCOCC2)cc1)c1ccc(-c2ccc(Br)cc2)o1	–	inconclusive: 35.5 µM [inhibitor, partial curve]
O=C(CCCN1C(=O)c2cccc3cccc(c23)C1=O)N1CCN(c2ccccc2)CC1	–	inconclusive: 20 µM [inhibitor, partial curve, poor fit]
O=C(Nc1cccc(Cl)c1)Nc1csc([N+](=O)[O-])c1	–	inconclusive: 39.8 µM [inhibitor, full curve, poor fit]
S=c1[nH]nc(C2CCCCC2)n1/N=C/c1ccccc1Br	–	active: 17.8 µM
COc1cc2nc(=S)n3[nH]c(CCn4c(C)nc5ccccc54)nc3c2cc1OC	–	inconclusive: 11.2 µM [inhibitor, full curve, poor fit]
CCNC(=S)N/N=C1\CCCCc2ccccc21	–	inconclusive: 44.7 µM [inhibitor, full curve, poor fit]
COc1ccc(S(=O)(=O)NCc2ccc3c(c2)cc(C)n3C)cc1	–	inconclusive: 35.5 µM [inhibitor, full curve]
C=CCn1c(Cc2csc(N)n2)nnc1SCC(=O)Nc1ccc(C(=O)OCC)cc1	–	active: 79.4 µM
COc1ccc(S(=O)(=O)NNC(=O)c2cc3c4ccccc4n(C)c3s2)cc1	–	inconclusive: 15.8 µM [inhibitor, partial curve]
Nc1nc2ccc([N+](=O)[O-])cc2[nH]1	inactive: -2.82%	–
C/C(=N/NC(=O)c1cnccn1)c1cccs1	–	active: 25.1 µM
Cc1ccc(NS(=O)(=O)c2cccc(C(=O)Nc3cccnc3)c2)c(C)c1	inactive: -25.3%	–
COc1ccc2nc(NC(=O)Nc3cccc4ccccc34)sc2c1	inactive: -25.2%	–
CC(C)c1ccc(NC(=O)CCC(=O)NCc2ccco2)cc1	inactive: -16.8%	–
O=C1c2ccccc2-c2n[nH]c(=O)c3ccc(N4CCCCC4)c1c23	–	inconclusive: 63.1 µM [inhibitor, partial curve]
Cn1nc(C(=O)NCC(=O)Nc2ccc(F)c(F)c2F)c2ccccc2c1=O	inactive: -11.3%	–
Cc1cc(C(C#N)c2cccc(Cl)c2)n2ncnc2n1 (centres undefined)	–	inconclusive: 79.4 µM [inhibitor, single point]
CN(Cc1ccccc1F)C(=O)CN1c2cccc3cccc(c23)S1(=O)=O	inactive: -6.08%	–
CCn1c(-c2sc(-c3ccccc3)nc2C)n[nH]c1=S	–	active: 17.8 µM
c1ccc(N(c2ccccc2)c2nc(N3CCCC3)nc(-n3ccnc3)n2)cc1	–	inconclusive: 39.8 µM [inhibitor, partial curve]

Structure (SMILES)	activity change, negative = inhibition	Potency
Cc1cccc(N2CC(O)=C(c3nc4ccccc4n3C)C2=N)c1	–	inconclusive: 63.1 µM [inhibitor, partial curve, poor fit]
CCOC(=O)CSC1=NC(=O)/C(=C\c2ccc(Cl)cc2)S1	–	inconclusive: 100 µM [inhibitor, partial curve]
CCN(CC(=O)Nc1ccccc1C(F)(F)F)C(=O)CCc1nc2sc3c(c2c(=O)[nH]1)CCCC3	–	inconclusive: 31.6 µM [inhibitor, full curve]
COc1ccc(Nc2cc(C)c3cc(NC(=O)c4cc(OC)cc(OC)c4)ccc3n2)cc1	–	inconclusive: 28.2 µM [inhibitor, full curve]
O=C(CN(CCc1ccccc1)C(=O)c1csnn1)NCc1ccc(F)cc1	inactive: -3.52%	–
CCOC(=O)/C(=N/Nc1ccccc1)Sc1nnnn1-c1ccc(C)cc1	–	inconclusive: 39.8 µM [inhibitor, partial curve]
CCCN1C(=O)C2(c3ccccc31)c1c(oc3ccc(C)cc3c1=O)C(=O)N2CCOC (centres undefined)	inactive: -1.04%	–
CCn1c(SCC(=O)Nc2ccccc2)nc2c1c(=O)n(C)c(=O)n2C	inactive: 0.629%	–
CCc1ccc(-c2nc(CCl)cs2)cc1	inactive: 69.5%	–
CCOC(=O)CNC(=O)COc1coc(CN2CCN(c3ccc(F)cc3)CC2)cc1=O	inactive: 5.06%	–
COc1cc(C(=O)N2CC(=O)Nc3ccc(C)cc3C2c2ccc(F)cc2)cc(OC)c1OC (centres undefined)	inactive: -0.341%	–
COc1ccc(S(=O)(=O)Nc2ccc3c(c2)C(=O)N([C@H](C)CO)C[C@H](C)[C@@H](CN(C)C(=O)Nc2ccc(C(F)(F)F)cc2)O3)cc1	inactive: -23.1%	–
COc1ccc(N=Nc2cc(C)c(O)c(CN3CCCCC3)c2)cc1	–	active: 22.4 µM
COc1ccc(C(=O)N/N=C/c2ccc(OC)c(CN3CCN(c4ccc(F)cc4)CC3)c2)cc1	–	inconclusive: 39.8 µM [inhibitor, partial curve]
Cc1sc2ncnc(SCC(=O)NCC(C)C)c2c1C	inactive: -8.57%	–
C[n+]1cnc(-c2ccccc2)cc1-c1ccccc1	–	active: 22.4 µM
CCc1nnc(N/N=C/c2ccc(N3CCC(C)CC3)c([N+](=O)[O-])c2)n1N	–	inconclusive: 79.4 µM [inhibitor, single point]
COc1ccc(Cl)cc1NC(=O)Cn1cc2c(n1)CCC(C)C2 (centres undefined)	inactive: -7.72%	–
CC(C)CCNC(=O)C1CCN(Cc2cccc(OCc3ccccc3)c2)CC1	–	active: 10 µM
COc1ccc(CCNc2ccc(C(CC(N)=O)NC(=O)c3ccc(Br)cc3)cc2[N+](=O)[O-])cc1 (centres undefined)	inactive: -20.8%	–
CC(CN1CCCCC1)OC(=O)COc1ccc(Cl)cc1 (centres undefined)	–	inconclusive: 39.8 µM [inhibitor, single point]
Oc1ccc(-c2csc(Nc3ccc4c(c3)OCO4)n2)c(O)c1	–	active: 56.2 µM
COc1ccccc1Sc1nc(-c2ccccn2)ncc1OC	–	active: 89.1 µM
Nc1cc(S(=O)(=O)O)cc([N+](=O)[O-])c1O	–	active: 35.5 µM
